# In ChEMBL document CHEMBL1156829:
# Whole data set: some 5,400 compounds, median “IFI” near 2, cut for the highest 2% near 22. The list shows a part of the results.
# Experiment: NOVARTIS: Inhibition Frequency Index (IFI) - the number of HTS assays where a compound showed > 50% inhibition/induction, expressed as a percentage of the number of assays in which the compound was tested.
# Format: functional
row,Structure (SMILES),IFI [%]
1,CCCCCCN(C(=O)c1ccc2ccccc2c1)C(CC)c1nc2ccccc2c(=O)n1-c1ccc(F)cc1 (stereo unspecified),2.94
2,CCN1CCN(c2cc(C)c3cc(NC(=O)/C=C/c4cc(OC)ccc4OC)ccc3n2)CC1,8.33
3,O=C1N(Cc2cc3ccccc3s2)CC2CN(Cc3ccccc3)CCN12 (stereo unspecified),4.29
4,O=C(NCc1ccccc1)c1cccc2c(Br)cccc12,3.92
5,Cc1ccc(-c2cc(-c3ccccc3)c(C#N)c(SCC(O)C[S+]([O-])Cc3ccccc3)n2)cc1 (stereo unspecified),0
6,Cc1ccc2nc(C)cc(NCCN(C)C)c2c1,4.71
7,CCC(=O)Nc1ccc2nc(SCC(=O)Nc3ccc(C(C)=O)cc3)sc2c1,2.33
8,N#C/C(=C\c1ccc(Sc2ccccc2)o1)c1nc2ccccc2[nH]1,6.74
9,CCCSc1nc(N)c(NC(=O)c2ccco2)c(=O)[nH]1,0
10,CCCCc1ccc(C(=O)N(CCc2ccccc2)C(CC)c2nc3ccccc3c(=O)n2-c2ccccc2OC)cc1 (stereo unspecified),5.77
11,COc1ccc(C2=C(Nc3ccc(C)c(C)c3)c3ccccc3C2=O)cc1,0
12,COc1cc(OC)cc(-n2c(=O)c3sccc3n(CC(=O)c3ccc(F)cc3)c2=O)c1,1.96
13,CN(CCCNc1ccnc2cc(Cl)ccc12)S(=O)(=O)c1cc(Cl)ccc1Cl,7.41
14,COc1ccc(C2(Cc3ccccc3)NC(=O)NC2=O)cc1 (stereo unspecified),0
15,CC(=O)N(C1=C(N2CCOCC2)C(=O)c2ccccc2C1=O)c1ccc(F)c(F)c1,0
16,O=C(NCCCCNc1ccnc2cc(Cl)ccc12)c1cccc(Br)c1,0.952
17,O=C(Nc1ccc(NC(=O)Nc2ccc(C3=NCCN3)cc2)cc1)Nc1ccc(C2=NCCN2)cc1,0.909
18,COc1ccc(OC)c(C=NNC(=O)Cc2cc(O)n[nH]2)c1,0
19,COC(=O)c1c(S(=O)(=O)N2CCN(C)CC2)sc2c1CCN(CCCc1ccccc1)C2,1.96
20,CC1=C2C(=O)c3ccccc3C2NC(=O)N1 (stereo unspecified),1.32
21,CN(CCCNc1nc2ccccc2c2nc(-c3cccnc3)nn12)Cc1ccccc1,0
22,Cc1ccc(-c2ccc(C#N)c(OCC(=O)NCCc3ccccc3)n2)c(C)c1,0
23,CCCN(CCC)[P+](CCC)(c1ccc([P+](CCC)(N(CCC)CCC)N(CCC)CCC)cc1)N(CCC)CCC,3.7
24,Clc1ccc(CNCCCn2ccnc2)cc1Cl,0.935
25,CCOC(=O)c1[nH]c2ccccc2c1N=NN(C)C,1.36
26,Cc1cc(NC(=O)c2ccc(S(=O)(=O)N(Cc3ccccc3)C(C)C)cc2)no1,2.78

row,Structure (SMILES),IFI [%]
1,Nc1nc(Nc2cccc(Cl)c2)n[nH]1,1.07
2,Oc1ccc(-c2cccnc2)cc1CNCC1CC2C=CC1C21CC1 (stereo unspecified),1.7
3,CCCCCCN(C(=O)c1ccc2ccccc2c1)C(CC)c1nc2ccccc2c(=O)n1-c1ccccc1OC (stereo unspecified),1.89
4,CCOC(=O)C1=CN(c2cc(C)ccc2C)C=C(C(=O)OCC)C1c1ccccc1OCC,2.35
5,FC(F)(F)c1cccc(NC(=S)N2CCCC2c2ccccc2Cl)c1 (stereo unspecified),3.64
6,CCOC(=O)CCC(=O)Oc1ccccc1-c1nc2ccccn2c1NC(C)(C)CC(C)(C)C,2.83
7,CCOC(=O)c1c(NC(=O)Cc2ccc([N+](=O)[O-])cc2)sc2c1CCCC2,0
8,NCCCCCCNC(=S)Nc1ccccc1,0
9,CC(C)C[C@@H]1NC(=O)[C@@H](CC(C)C)NC(=O)[C@H](C(C)C)NC(=O)[C@H]2CSSC[C@@H](NC1=O)C(=O)N2,25.9
10,O=C(NN=Cc1ccc(O)cc1O)c1ccncc1,2.73
11,CCN1/C(=C/C=C/c2sc3ccccc3[n+]2CC)Sc2ccccc21,21.7
12,O=C(c1cnn(-c2ccccc2)c1C(F)(F)F)N1CCN(c2ccnc3cc(Cl)ccc23)CC1,6.45
13,Cc1ccc(-c2c3c(nc4sc(C(=O)Nc5cccc(C)c5)c(N)c24)CCC3)cc1,4.71
14,Cc1oc2c(c1C(=O)NCCCn1ccnc1)C(=O)c1ccccc1C2=O,24.3
15,CC1(C)C=C(C23C=CC(C2)C2C(=C4CC(C)(C)NC(C)(C)C4)C=CC23)CC(C)(C)N1 (stereo unspecified),6.15
16,CCN(CC)CCCNC(=S)N(Cc1ccccc1)Cc1cc2cc(C)c(Cl)cc2[nH]c1=O,16.4
17,CC1CCN(CCCNc2ccc(C(=O)Nc3ccc(C(F)(F)F)cc3)cc2[N+](=O)[O-])CC1,0
18,CCCCN(C)CCCNC(=O)c1ccc(Cl)c(NC(=O)Nc2ccc(Cl)c(Cl)c2)c1,2.94
19,OCCNc1nc(Nc2ccc(Cl)c(Cl)c2)nc2ccccc12,0
20,CCc1ccc(-n2nnc(C(=O)Nc3ccccc3Cl)c2C)cc1,2.86
21,CC(=O)N1CCC(N(C(=O)Nc2c(F)cccc2F)C(C)C)CC1,0
22,CSC1=NC(=Nc2ccccc2C)C2(CCC(C(C)(C)C)CC2)N1c1ccc(O)cc1 (stereo unspecified),0
23,Cc1sc2c(c1C)CN(Cc1ccco1)CN2C(=O)c1ccco1,0
24,COc1ccc(Cn2c(-c3ccc(Cl)cc3)c[n+]3ccccc23)cc1,0
25,O=C1NN=C2C1=NC1(CCCCC1)Cc1ccccc12,8.33
26,CN(CCCNc1ccnc2cc(Cl)ccc12)C(=O)c1ccc(Cl)c([N+](=O)[O-])c1,1.87

row,Structure (SMILES),IFI [%]
1,O=C(Nc1ccc(CC2=NCCCN2)cc1)c1ccc(C(=O)Nc2ccc(CC3=NCCCN3)cc2)cc1,1.77
2,CN(C)c1cc(NC(=O)Nc2ccccc2)c2ccccc2n1,2.26
3,CCC(=O)Nc1cc(NC(=O)CSc2nc(C)c(CC)c(O)n2)ccc1C,5.46
4,CCOc1ccc2ncc(S(=O)(=O)c3ccc(OC)cc3)c(N3CCN(C)CC3)c2c1,0
5,Cc1ccc(-c2nn(CC(=O)Nc3cccc(C)c3)c(=O)c3ccccc23)cc1,1.18
6,COc1cc2c(cc1OC)C(CCCCCl)=NC(C)(C)C2,0
7,COc1ccc2nc(C)cc(Nc3cccc(O)c3)c2c1,0
8,CN(C)c1ccc(Nc2nc(NCC3CCCO3)c3ccccc3n2)cc1 (stereo unspecified),7.69
9,CCCCCN(C(=O)c1ccc2ccccc2c1)C(CC)c1nc2ccccc2c(=O)n1-c1ccc(Cl)cc1C (stereo unspecified),1.89
10,O=C1NCCN1C(=O)C(c1ccccc1)c1ccccc1,4.54
11,CCCCCCCCCCOC(=O)Cn1c(C)[n+](C)c2ccccc21,1.53
12,CCCCCCCc1ccc(-c2nnc(-c3ccc([N+](=O)[O-])cc3)o2)cc1,0
13,COc1ccc(CCNc2nc(NCCCN(C)C)ncc2C(=O)NCc2ccccc2)cc1OC,2.86
14,COc1ccc(/C=C\c2nc(=O)c3ccccc3o2)cc1,0
15,c1ccc2c(c1)[nH]c1ccc3ccncc3c12,2.78
16,CCOC(=O)C1=C(C)N(c2ccc(N(C)C)cc2)C(C)=C(C(=O)OCC)C1c1ccc(Br)cc1,0
17,CN(C)c1oc(-c2ccc(Cl)cc2Cl)nc1[P+](c1ccccc1)(c1ccccc1)c1ccccc1,20.4
18,COc1cc2nc(NCCCOC(C)C)n3nc(-c4ccccc4)nc3c2cc1OC,0
19,Cc1nc(NC(=N)N)nc2ccccc12,0.585
20,CN1[C@@H](C(=O)Nc2ccc3c(c2)OCO3)C[C@@H](c2ccc(F)cc2)NS1(=O)=O,0
21,O=C1CC(c2ccc(O)cc2)C2=C(CC(c3ccccc3Cl)CC2=O)N1 (stereo unspecified),0
22,CNC(=O)c1nn(C)c2c1CC(NCC1CCCCC1)CC2 (stereo unspecified),4.88
23,Cc1cc(Nc2ccc(C(=O)n3ccnc3)cc2)n2ncnc2n1,4.65
24,COc1ccc2cc(CNCCc3cccc(Cl)c3)c(N3CCC(=O)N(CCN(C)C)CC3)nc2c1,9.73
25,CNC(=O)[C@@H]1C[C@@H](NCc2ccc(OC)cc2)CN1Cc1ccccc1,0
26,O=C(CSc1oc(-c2ccc(Cl)cc2)nc1[P+](c1ccccc1)(c1ccccc1)c1ccccc1)c1ccccc1,21.4

row,Structure (SMILES),IFI [%]
1,COc1ccc(CCNc2nc(NCCCN3CCCCC3C)ncc2C(=O)NCc2ccccc2)cc1OC (stereo unspecified),3.81
2,Cc1nc2ccc(Cl)cc2c(O)c1I,0.752
3,CC(C)CC1=Nc2cc(C(=O)NC(C)C)ccc2CN1Cc1ccccc1,3.8
4,C=CCNC(=O)c1cc2c(=O)n3cccc(C)c3nc2n(CCc2ccccc2)c1=N,5.88
5,C=CCSC1=NC2(CC(c3ccccc3)c3cc(Cl)c(O)cc3O2)CC(C)(C)N1 (stereo unspecified),0
6,CCC(C)Nc1nc(NC(C)CC)nc(N2CCCCCC2)n1 (stereo unspecified),0
7,COc1ccc(/C=C2\SC(=Nc3ccccc3OC)NC2=O)cc1,7.69
8,O=C(NC1CCCCC1)c1noc2c1CCCCC2,11.4
9,Cc1ccc(C2=NC(C(F)(F)F)(C(F)(F)F)N=C3C=CC(Cl)=CN32)cc1,0
10,CCN1C(=S)NC2c3cc(C)ccc3OC13CCCC23 (stereo unspecified),0
11,CCCn1c(=N)c(C(=O)NC2CCCCC2)cc2c(=O)n3cccc(C)c3nc21,8.33
12,O=C(CN1C(=O)C2C3CCC(C3)C2C1=O)N1CCCC(c2ncncc2-c2ccncc2)C1 (stereo unspecified),0
13,CCOc1ccc(C2N(C)c3ccccc3N2C)cc1,2.74
14,NCCC(=O)N1CC(c2ccccc2)c2ccccc2C1CN1CCCCC1 (stereo unspecified),4.22
15,O=S(=O)(NCCCCNc1ccnc2cc(Cl)ccc12)c1ccc2ccccc2c1,1.89
16,CCN(CC)CCNc1ccc(Nc2ccnc3cc4ccccc4cc23)cc1,17.2
17,Oc1c(CN2CCCCC2)ccc2ccccc12,0
18,CC(C)CNc1nc(NCCCN2CCCC2)ncc1C(=O)NCCc1ccccc1,1.91
19,COc1cc(C(c2c(C)n(C)n(-c3ccccc3)c2=O)c2c(C)n(C)n(-c3ccccc3)c2=O)cc(Cl)c1OCc1ccccc1,0
20,CCOc1ccc(Nc2ccnc3cc(Cl)ccc23)cc1,5.17
21,COCCNC(=O)c1ccc2c(=O)n(Cc3ccc4c(c3)OCO4)c(=S)[nH]c2c1,0
22,COc1ccc(-c2cc(C3CCN(c4nc(N)c5cc(OC)c(OC)cc5n4)CC3)n[nH]2)cc1OC,7.41
23,O=C(c1ccc([N+](=O)[O-])cc1)c1ccc(N2CCOCC2)c([N+](=O)[O-])c1,0
